Experimental data: the supplement of paper PMC4466236
Whole data set: some 33,000 sequences, median “E-score (dimensionless, -0.5 to 0.5)” near -0.058, cut for the highest 2% near 0.35. The list shows a part of the results.

system: MvaT; test: PBM 8-mer E-score (mean of HK and ME arrays) (E-score (dimensionless, -0.5 to 0.5)); higher = stronger relative binding preference; most listed sequences are background and not binding sites
How it was run: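 Full-length P. aeruginosa MvaT carrying an N-terminal glutathione S-transferase tag was tested by protein binding microarray following a previously described protocol. Two universal double-stranded 60-mer arrays, ME and HK, were used, each with a constant 25-mer primer region and a variable 35-mer region covering all 8-mers. The rank-based E-score is the mean of the two arrays, parsed with a custom script. Its range runs from -0.5 to 0.5 for each 8-mer.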

| Sequence | PBM 8-mer E-score |
| --- | --- |
| ACGCACCG | -0.0972 |
| CGTTGCGA | -0.152 |
| CTACTGAG | -0.224 |
| TCCAAAGA | 0.0835 |
| CCTCAATA | 0.0424 |
| ATTACTGA | 0.0102 |
| GCGCTGAA | -0.0885 |
| AAGAAAAA | 0.227 |
| ATGACCTG | -0.161 |
| GCTGACTA | 0.00173 |
| GACGCAAA | -0.0286 |
| TAATATAA | 0.463 |
| GAAGCGCC | -0.27 |
| TAGCTTAA | 0.204 |
| ACTATGCA | 0.0943 |
| AAGAATCC | -0.0742 |
| CCATGCGA | -0.151 |
| CCCGCCCC | -0.361 |
| ATCACTAA | 0.0111 |
| AATGAGTG | 0.16 |
| ATGCGGTC | -0.13 |
| CTGATCGC | -0.167 |
| ACATCTCG | -0.0682 |
| AGGCATTC | -0.0959 |
| AAGGATGC | -0.172 |

| Sequence | PBM 8-mer E-score |
| --- | --- |
| CCTGCTAG | -0.279 |
| ACCACCGG | -0.167 |
| CAGCAAGC | -0.204 |
| ACTCACTC | -0.0877 |
| CACCACTC | -0.0842 |
| GTCACGCA | -0.102 |
| CCATACAG | -0.141 |
| ACCCCTGG | -0.306 |
| ACTATAGA | 0.127 |
| AGCGGCAA | -0.023 |
| GAGCCCCA | -0.336 |
| AATTGAAC | 0.155 |
| CGAGCTTC | -0.313 |
| AGCGCGCA | -0.0694 |
| AATCCCTC | -0.138 |
| AGTTCAAG | 0.147 |
| ACCATCTA | 0.132 |
| GCCTATGA | -0.24 |
| CCATACTC | 0.0987 |
| AAGTTGAA | 0.268 |
| CATTTGCA | 0.144 |
| AGAACCTA | -0.105 |
| ATGTCTCG | 0.00952 |
| AATGCGAA | 0.0409 |
| GTACGTAA | -0.00701 |

| Sequence | PBM 8-mer E-score |
| --- | --- |
| AACAGAGT | 0.0809 |
| ACCTTACT | 0.0694 |
| TAAGGCGA | -0.0716 |
| GATGGATA | 0.126 |
| CCCAAGAA | -0.148 |
| ATAACTCG | 0.255 |
| GTTATAAC | 0.434 |
| GGTAAACC | -0.0221 |
| GCCATAAA | 0.185 |
| AATCCAAT | 0.147 |
| TCCACCCA | -0.118 |
| GAGAGTCA | -0.341 |
| ACGGGATC | -0.22 |
| TGTGAGAA | 0.0468 |
| CGGCCCCC | -0.317 |
| CTTTAGGA | -0.104 |
| TGTTGAAA | 0.23 |
| CTAACCCA | -0.0114 |
| TAAGTCTA | 0.132 |
| GCACTGAA | -0.03 |
| ATCAGCTC | -0.144 |
| ATGTAGTA | 0.259 |
| ACCATCAT | 0.138 |
| GTTAAATA | 0.396 |
| GGGATTTA | 0.11 |

| Sequence | PBM 8-mer E-score |
| --- | --- |
| ATGAGCTA | -0.14 |
| AAGCTGTG | -0.172 |
| GCCGCTAC | -0.0886 |
| AGTATGTG | 0.209 |
| CACGTAAC | 0.0727 |
| CAGCACGA | -0.15 |
| GAACGGCA | -0.0405 |
| ATTTCTAA | 0.232 |
| AGCGCGAC | -0.125 |
| CCCAGAAC | -0.0307 |
| ATTGGGTC | -0.0304 |
| CTAGCTAA | -0.167 |
| ACCGCTCG | -0.195 |
| GTTGAGTA | 0.0405 |
| CCATAACA | 0.184 |
| AGTCTTAA | 0.0858 |
| CATCAAGC | -0.188 |
| AGTCCAGC | -0.172 |
| ATTCGGCA | 0.114 |
| AATCCTAC | -0.0823 |
| ATGAAACC | -0.179 |
| CGAGGTTC | -0.303 |
| AGGTTACC | -0.212 |
| CGATTCCA | -0.0397 |
| AACATTCC | 0.166 |

| Sequence | PBM 8-mer E-score |
| --- | --- |
| AACCTTTG | 0.0371 |
| GGCCGCCC | -0.367 |
| GGTTAACC | -0.0887 |
| AAGCGTCA | -0.00559 |
| CGGAGTTC | -0.106 |
| AATTGTGA | 0.168 |
| AGTCCCAA | -0.0646 |
| GACGTAAC | -0.0078 |
| GTGTAGGA | -0.118 |
| AGATTGAC | -0.15 |
| AAATTATC | 0.318 |
| CGTTTGAC | -0.0853 |
| ACAGGCGC | -0.258 |
| AGCAGAAG | -0.118 |
| GAAGGATA | 0.0386 |
| GCGGGTTA | 0.0558 |
| GAGCGCAA | 0.0314 |
| TCGTATCA | 0.0351 |
| CGAGTCAC | -0.21 |
| CCGCGAGA | -0.101 |
| ATTTCTAG | 0.0898 |
| ACCCAGGA | -0.12 |
| CCCACATA | 0.0562 |
| CAGTTCAA | 0.0238 |
| AACCAAAA | 0.167 |

| Sequence | PBM 8-mer E-score |
| --- | --- |
| GAACAAAA | 0.114 |
| TCTTTGAA | 0.164 |
| CACTATCA | 0.228 |
| TAGGCTAA | 0.109 |
| GTAGTGAA | 0.0128 |
| CGCTCCGC | -0.285 |
| CCAGCACA | -0.0695 |
| CACAAGTG | -0.123 |
| AATCTGCA | -0.121 |
| CACGCGAA | -0.0648 |
| AGAGGTAT | -0.012 |
| ATCCTTTA | -0.00829 |
| ATTTATGA | 0.244 |
| ACGGTTAA | 0.0361 |
| ATGATCGG | -0.174 |
| GTGTATGA | 0.14 |
| GCACGTAC | -0.123 |
| ACACTTTC | 0.0457 |
| ATACAAAA | 0.304 |
| ATGCGAGC | -0.16 |
| ACTCTGCT | -0.0232 |
| CCACACTC | 0.0812 |
| CATAGGGA | -0.132 |
| CCCCCTCA | -0.314 |
| GCTGTGTA | 0.0384 |

| Sequence | PBM 8-mer E-score |
| --- | --- |
| CTCTAAGC | -0.0611 |
| ACAAAGAC | 0.25 |
| CCGAATAG | -0.0201 |
| ACGCAGTG | -0.257 |
| ACCCCAAC | -0.1 |
| ACGTGGAT | -0.07 |
| CATCAGTC | -0.138 |
| ACCTAGGC | -0.191 |
| AAGCTCTC | -0.117 |
| AGTGGGGA | -0.22 |
| TTCCCGAA | -0.041 |
| TCCTACGA | -0.0392 |
| ACGCTATA | 0.136 |
| ATATTTTG | 0.319 |
| ACTGTGTA | 0.0823 |
| AGTTACTC | 0.114 |
| CCCGTATA | 0.0432 |
| ATGTCTCA | 0.207 |
| AAATTGAC | 0.166 |
| CCTTTTAG | 0.0919 |
| GCACATCC | -0.186 |
| CGTTCCGA | -0.219 |
